Reference: PubChem BioAssay (NCATS)
This is one part of the list. These are further read-outs of the screen, such as a control signal, another cell line or another target. No call is given for them. Words in brackets tell the shape of the fitted curve; partial curves, single points and poor fits give uncertain potencies.

assay: qHTS drug screen for cell cycle checkpoint inhibitors in PARPi-resistant BRCA-mutant ovarian cancer cell lines. (AID 1963452); conditions: PEO1/OlaR viability, CellTiter-Glo luminescence, 96 h; measured here: PEO4 viability
How it was run: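 PEO1, PEO4 and PEO1/OlaR ovarian cancer cells, 600 per well, exposed 96 h at 37C to a dilution series. Viability read by CellTiter-Glo luminescence, normalized to DMSO and empty wells; activity summarized as Z-AUC.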
Tags tell the direction and shape of the fitted curve.

| SMILES | AC50 |
| --- | --- |
| CC(C)c1c(C(=O)Nc2ccccc2)c(-c2ccccc2)c(-c2ccc(F)cc2)n1CC[C@@H](O)C[C@@H](O)CC(=O)O | 5.35 µM [falling, partial curve, poor fit] |
| c1ccc(-c2ccc(CNc3nc(-c4ccccn4)nnc3-c3ccccc3)cc2)cc1 | 1.23 µM [falling, full curve] |
| CCCOc1ccc(CCc2nc3cc(-c4c(C)noc4C)ccc3n2CCN2CCOCC2)cc1 | 19.5 µM [falling, single point] |
| Cc1ncsc1-c1ccc([C@H](C)NC(=O)[C@@H]2C[C@@H](O)CN2C(=O)[C@@H](NC(=O)COCCCOCCNC(=O)C[C@@H]2N=C(c3ccc(Cl)cc3)c3c(sc(C)c3C)-n3c(C)nnc32)C(C)(C)C)cc1 | 0.0436 µM [falling, full curve] |
| CCN1CCN(Cc2ccc(NC(=O)c3ccc(C)c(/C=C/c4cnc5[nH]ccc5c4OC)c3)cc2C(F)(F)F)CC1 | 6.16 µM [falling, partial curve] |
| CCCn1c(=O)c2[nH]c(-c3cnn(Cc4cccc(C(F)(F)F)c4)c3)nc2n(CC)c1=O | 0.0035 µM [rising, single point] |
| FC(F)(F)c1ccc(Nc2nc(-c3c(C(F)(F)F)nc4ccccn34)cs2)cc1 | 0.0245 µM [falling, full curve, poor fit] |
| Cc1ccc(C(=O)Nc2ccc(CN3CCN(C)CC3)c(C(F)(F)F)c2)cc1C#Cc1cnc2[nH]ncc2c1 | 3.09 µM [falling, full curve] |
| C=C1C(=O)O[C@H]2[C@H]1CC/C(C)=C/CC[C@@]1(C)O[C@@H]21 | 17.4 µM [falling, partial curve] |
